Data reported in article PMC4336329 (PLoS ONE, 2015).
Out of some 310,000 compounds screened, about 14,000 (4.5%) showed an effect of 50% or more. The effect is printed as a negative number. The list shows a part of the results.

Biological target: human ether-à-go-go-related gene (hERG) potassium channel (human, UniProt Q12809)
Test: primary screen, population patch clamp on CHO cells stably expressing hERG
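Also: peak tail current of the secondary pulse compared with the same well before compound.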

human ether-à-go-go-related gene (hERG) potassium channel, sequence (Q12809 whole entry, looked up): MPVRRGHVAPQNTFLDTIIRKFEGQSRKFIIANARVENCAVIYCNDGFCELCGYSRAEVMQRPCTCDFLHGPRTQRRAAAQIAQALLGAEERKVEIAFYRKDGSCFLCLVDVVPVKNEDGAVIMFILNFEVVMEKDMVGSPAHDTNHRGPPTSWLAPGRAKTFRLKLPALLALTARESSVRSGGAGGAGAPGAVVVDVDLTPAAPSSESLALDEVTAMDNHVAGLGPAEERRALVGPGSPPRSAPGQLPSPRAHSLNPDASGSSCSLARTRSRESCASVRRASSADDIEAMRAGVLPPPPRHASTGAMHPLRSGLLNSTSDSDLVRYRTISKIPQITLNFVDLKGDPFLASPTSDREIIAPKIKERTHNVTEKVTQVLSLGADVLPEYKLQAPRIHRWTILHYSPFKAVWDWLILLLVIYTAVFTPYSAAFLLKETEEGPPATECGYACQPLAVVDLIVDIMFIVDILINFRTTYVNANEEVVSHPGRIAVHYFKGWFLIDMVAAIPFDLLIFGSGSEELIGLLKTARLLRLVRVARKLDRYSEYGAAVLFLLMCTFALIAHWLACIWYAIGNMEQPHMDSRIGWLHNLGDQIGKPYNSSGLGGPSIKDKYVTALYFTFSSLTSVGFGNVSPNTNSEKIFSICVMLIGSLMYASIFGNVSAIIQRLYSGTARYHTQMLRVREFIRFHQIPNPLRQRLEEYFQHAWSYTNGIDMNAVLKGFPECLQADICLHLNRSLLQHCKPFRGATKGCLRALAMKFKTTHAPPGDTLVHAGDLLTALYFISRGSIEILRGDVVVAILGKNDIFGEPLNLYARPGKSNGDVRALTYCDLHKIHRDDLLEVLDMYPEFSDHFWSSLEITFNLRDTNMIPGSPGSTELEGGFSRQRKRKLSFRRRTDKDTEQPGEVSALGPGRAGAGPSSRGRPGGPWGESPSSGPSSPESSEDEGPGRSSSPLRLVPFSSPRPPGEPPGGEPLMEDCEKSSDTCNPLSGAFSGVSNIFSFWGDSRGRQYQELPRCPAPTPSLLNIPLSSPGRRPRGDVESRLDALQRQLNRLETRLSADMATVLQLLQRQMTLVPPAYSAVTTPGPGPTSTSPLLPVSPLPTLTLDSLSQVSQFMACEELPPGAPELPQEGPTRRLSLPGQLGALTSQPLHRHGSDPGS

Structure (SMILES)	hERG current change (%, negative = inhibition) at 10uM
COc1c(C)cccc1C(=O)Nc1cc(Cl)ccc1N1CCOCC1	7.1%
O=C(CSCc1ccccc1)N/N=C/c1cc2c(cc1Br)OCO2	4.47%
O=C(CS(=O)(=O)Cc1ccccc1)N1CCc2ccccc21	-13.5%
CCOC(=O)Nc1ccc(Oc2ccccc2)cc1	-43.8%
CC1CCN(c2oc(-c3ccc(F)cc3)nc2C#N)CC1	-6.35%
Cc1cc(C(=O)Nc2ncc(C)s2)c2ccccc2n1	-16.4%
CCn1c(O)c(N=NC(=O)CNC(=O)c2ccco2)c2ccccc21	7.12%
COc1ccc(CCNC(=S)NCCc2c[nH]c3ccccc23)cc1	-4.64%
O=C(CCn1c(=S)oc2ccccc21)NC1CCCCCCC1	-7.06%
Cc1ccc(S(=O)(=O)N(CC(=O)Nc2ccccc2-c2ccccc2)c2ccc(C)cc2C)cc1	6.05%
C[C@H]([C@@H](N)C(=O)N[C@@H](C(=O)O)[C@@H]1O[C@H](n2ccc(=O)[nH]c2=O)[C@@H](O)[C@H]1O)[C@@H](O)c1ccc(O)cn1	2.64%
COc1ccc(/C(N)=N/OC(=O)c2ccc([N+](=O)[O-])c(C)c2)cc1OC	-16.5%
O=C(NCc1ccccc1C(F)(F)F)C1CCC(=O)N(C2CC2)C1 (stereo not drawn)	0.171%
O=C(Nc1ccc2snnc2c1)Nc1cccc2ccccc12	5.36%
O=C(Nc1ccnc(-c2ccncc2)n1)C1CC1	-27.7%
CCCn1c(O)c(N=N)c2ccccc21	14.1%
Cc1cc(Br)ccc1NC(=O)c1ccccc1-c1ccccc1	32.3%
Cc1cc(C)c(S(=O)(=O)NCCc2cc3ccc(C)c(C)c3[nH]c2=O)c(C)c1	14.9%
C[C@H](NC(=O)C1CC(=O)N(c2ccc3c(c2)OCO3)C1)C(=O)NC1CCCC1 (stereo partly drawn)	-9.72%
COc1ccccc1C(=O)NCCC(=O)N(C)CC(=O)Nc1ccc(Cl)cc1	-31.9%
CC[C@@H](CCC=C(C)C)C(=O)N(Cc1ccccc1)c1ccccc1	3.94%
O=Cc1cn(CCC(=O)O)nc1-c1cccc(Br)c1	24.2%

Structure (SMILES)	hERG current change (%, negative = inhibition) at 10uM
CCC(=O)N/N=c1/sc2ccccc2n1C	13.9%
O=C1NC(=O)N(C2CCCCC2)C(=O)C1C1c2ccccc2C(=O)N1Cc1ccccc1 (stereo not drawn)	-0.0704%
CN(CC(=O)O/N=C(\N)c1ccc([N+](=O)[O-])cc1)S(=O)(=O)c1ccc2ccccc2c1	-12.6%
COc1ccc(N2CC(C(=O)Nc3ccc4c(c3)OCCO4)CC2=O)cc1 (stereo not drawn)	4.94%
Cc1ccc(-c2noc(CCC(=O)NCCN3CCc4ccccc4C3)n2)cc1	-37.4%
COc1ccc(S(=O)(=O)N2CCOCC2)cc1C(=O)N(C)CCOc1ccc(Cl)cc1	-79.8%
CC1(C)CC(NCc2ccncc2)CC(C)(C)N1	37.1%
CCNS(=O)(=O)c1ccc(NC(=S)NCc2ccco2)cc1	3.26%
Cc1ccc(N/C=C/C(=O)c2ccccc2)cc1C	16.3%
CCOC(=O)C1CCN(C(=O)Nc2ccc3nccnc3c2)CC1	-16.1%
COC(=O)NC(=C(Cl)Cl)S(=O)(=O)c1ccccc1	2.84%
Nc1nnc(SCC(=O)N2CCN(c3cccc(Cl)c3)CC2)n1-c1ccccc1	-18.2%
COc1ccccc1-c1cc(C(F)(F)F)nc(N2CCN(c3ccccc3)CC2)n1	3.5%
CC(=O)c1cccc(NC(=O)Cn2cnc(S(=O)(=O)N3CCOCC3)c2)c1	11.9%
CCNC(=O)/C(C#N)=C/c1c(N2CCN(C)CC2)nc2c(C)cccn2c1=O	12.2%
CCn1c2ccccc2c2cc([N+](=O)[O-])ccc21	7.95%
CCn1cc(C(=O)NC2CCCCC2)c(=O)c2cc(S(=O)(=O)N(C)C)ccc21	2.38%
COc1cc(O)c(/C=N/NC(=O)c2ccncc2)c(OC)c1[N+](=O)[O-]	-5.01%
Cc1nc(N2CCC(C)CC2)c2oc3ccccc3c2n1	6.63%
COc1ccc(NC(=O)C/C(C)=N/NC(=O)c2cccs2)c([N+](=O)[O-])c1	-54.4%
COc1ccc(C)cc1C(=O)CCC(=O)NCCc1ccc(S(N)(=O)=O)cc1	19.6%
COc1cccc(OCC(=O)N2CCCc3ccccc32)c1	-0.515%

Structure (SMILES)	hERG current change (%, negative = inhibition) at 10uM
COc1ccc(Cl)cc1Nc1ncnc2sc(C)c(S(=O)(=O)N3CCC(C)CC3)c12	3.4%
Cc1ccc(N2CCN(C(=O)c3ccccc3NC(=O)C3CCCCC3C(=O)O)CC2)cc1 (stereo not drawn)	9.14%
CCOc1ccc2nc(N/C(N)=N/S(C)(=O)=O)nc(C)c2c1	2.24%
COc1ccc2oc(C(=O)OCC(=O)NC(=O)NC(C)C)c(C)c2c1	25.9%
CCC(=O)Oc1ccc(C(=O)Nc2cccc(NC(=O)c3ccco3)c2)cc1	-1.82%
Cn1c(NC(=O)c2cc(-c3ccc4c(c3)OCO4)nc3ccccc23)cc(=O)n(C)c1=O	8.89%
O=C(CN1CCC(NC(=O)C2CC2)CC1)Nc1ccccc1[N+](=O)[O-]	22.1%
COc1ccc(C(CCN2CCCCC2)c2c(OC)cc(OC)c3c(-c4ccccc4)cc(=O)oc23)cc1 (stereo not drawn)	-55.1%
CC(=O)COC(=O)c1cccc(N2C(=O)C3C4C=CC(C4)C3C2=O)c1 (stereo not drawn)	3.38%
CCOc1ccc(C2C(C#N)=C(N)Oc3cc(C)oc(=O)c32)cc1 (stereo not drawn)	9.66%
COc1ccc(Cl)cc1NC(=S)NCc1cccnc1	-15.3%
O=C(NNC1=NCCC1)C1CC1	23.9%
COc1cc(-n2c(C)nc3cc(C(=O)NCC4CCCO4)ccc32)cc(OC)c1OC (stereo not drawn)	11.3%
Cc1ccc(N2C(=O)CC(n3nc(C)cc3C)C2=O)cc1 (stereo not drawn)	-19.8%
Cn1c(=O)n(C)c2cc(NC(=O)COc3ccc(Cl)cc3)ccc21	-59.4%
Cc1nc(-c2ccccc2)nc2[nH]c(=O)n(-c3ccccc3)c(=O)c12	4.7%
O=C(Oc1ccc(-c2cn3c(n2)SCC3)cc1)c1ccccc1	2.58%
Cc1ccc2oc(=O)c(/C=C(\O)c3sc(C)nc3C)nc2c1	-3.17%
O=C(CC(C(=O)N1CCc2ccccc21)n1ccnc1)NCc1cccnc1 (stereo not drawn)	-6.03%
CCN(C(=O)CSc1nnc(-c2cccs2)n1CC)C1CCS(=O)(=O)C1 (stereo not drawn)	3.65%
CCC(=O)c1ccc(OCC(=O)NCCC2=CCCCC2)c(OC)c1	-16.3%
CC12CCC(C(=O)O)(c3nc(C#N)c(C#N)nc31)C2(C)C (stereo not drawn)	14.2%

Structure (SMILES)	hERG current change (%, negative = inhibition) at 10uM
COc1ccc(-c2cn(Cc3ccc([N+](=O)[O-])cc3)nn2)cc1	-9.43%
CCCCOc1ccc(OCCCC)c2c1NC1(N2)C(=O)N(C(C)=O)c2ccccc21	6.69%
CCCCNC(=O)CNC(=O)c1nn(-c2ccc(OC)cc2OC)c(=O)c2ccccc12	6.44%
COc1cc(NS(=O)(=O)c2cc(C(=O)N3CCN(C(C)=O)CC3)ccc2OC)cc(OC)c1	4.09%
Cc1nc2ccccc2nc1OCC(=O)Nc1cc(C(F)(F)F)ccc1N1CCOCC1	0.222%
COc1cc(C2/C(=C(\O)c3ccc4c(c3)CC(C)O4)C(=O)C(=O)N2Cc2ccco2)ccc1O (stereo not drawn)	-3.61%
N#Cc1ccccc1	14.6%
c1ccc2c(c1)CC(CN1CCNCC1)O2 (stereo not drawn)	-52.3%
COc1ccccc1-c1cc(C(F)(F)F)nc(S(=O)(=O)CCCC(=O)Nc2cc(C)on2)n1	-7.67%
NC(=O)NC(CCC(=O)O)C(=O)O (stereo not drawn)	-2.61%
COc1ccc(N(C)C(=S)Nc2ccc3nc(C)c(C)nc3c2)cc1	-6.56%
COc1ccc(N(CC(=O)NCc2ccco2)S(C)(=O)=O)cc1Cl	-2.22%
COc1ccc(N2CCN(C(CNC(=O)c3ccc4c(c3)OCO4)c3cccnc3)CC2)cc1 (stereo not drawn)	-16.2%
CC(=O)OCCOc1nc(NC(C)C)nc(NC(C)C)n1	-1.59%
CCc1nc2ccccc2c(C(=O)OC2CCOC2=O)c1C (stereo not drawn)	7.9%
COc1ccccc1N1CCN(C(=O)CN(CCc2ccccc2)S(C)(=O)=O)CC1	-1.03%
O=C(CN1c2ccccc2Sc2ccccc21)N/N=C/c1ccc([N+](=O)[O-])cc1	10%
Cc1ccccc1NC(=S)N(CCCN1CCCCC1)Cc1ccco1	-45.4%
CN1CCN(S(=O)(=O)c2ccc(NC(=O)Cc3ccc([N+](=O)[O-])cc3)cc2)CC1	-4.49%
CC(c1ccco1)N(C(=O)c1cccc(S(=O)(=O)N(C)C)c1)c1ccccn1 (stereo not drawn)	16%
COc1ccc(NC(=O)CNC(=O)Cn2cnc3sc4c(c3c2=O)CCCC4)cc1OC	25.3%
